Source: PubChem BioAssay AID720709 (National Center for Advancing Translational Sciences (NCATS), 2013)
Out of some 360,000 compounds screened, about 520 (0.14%) were called active. This list was built around the results that the source calls inconclusive (neither active nor inactive); the mix of calls is not that of the screen. The call rests on the fitted dose curve; in most records, active means well fitted inhibition curve with a large enough effect; inconclusive means small, poorly fitted or top-dose-only effect; inactive means no such curve, though single readings can be large or run the other way. No potency is given beside an inconclusive call; the fits are too rough.

What follows are compounds tested against Rap guanine nucleotide exchange factor 3 (Homo sapiens) (UniProt O95398) (assay: qHTS for Antagonist of cAMP-regulated guanine nucleotide exchange factor 3 (EPAC1): primary screen). Details: EPAC1 GEF assay, Rap1b-BODIPY-GDP exchange fluorescence; activity change, negative = inhibition: at 115 µM (top of the series).
Further: nearly all actives have a fitted effect of over 50% in size.
Potency means the concentration at half of the fitted maximal effect; tags describe the fitted curve by direction and shape.
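Wherever activity change, negative = inhibition is given: plate controls were vehicle for no effect and positive control for full effect.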

Chain of UniProt O95398 (O95398 whole entry, looked up): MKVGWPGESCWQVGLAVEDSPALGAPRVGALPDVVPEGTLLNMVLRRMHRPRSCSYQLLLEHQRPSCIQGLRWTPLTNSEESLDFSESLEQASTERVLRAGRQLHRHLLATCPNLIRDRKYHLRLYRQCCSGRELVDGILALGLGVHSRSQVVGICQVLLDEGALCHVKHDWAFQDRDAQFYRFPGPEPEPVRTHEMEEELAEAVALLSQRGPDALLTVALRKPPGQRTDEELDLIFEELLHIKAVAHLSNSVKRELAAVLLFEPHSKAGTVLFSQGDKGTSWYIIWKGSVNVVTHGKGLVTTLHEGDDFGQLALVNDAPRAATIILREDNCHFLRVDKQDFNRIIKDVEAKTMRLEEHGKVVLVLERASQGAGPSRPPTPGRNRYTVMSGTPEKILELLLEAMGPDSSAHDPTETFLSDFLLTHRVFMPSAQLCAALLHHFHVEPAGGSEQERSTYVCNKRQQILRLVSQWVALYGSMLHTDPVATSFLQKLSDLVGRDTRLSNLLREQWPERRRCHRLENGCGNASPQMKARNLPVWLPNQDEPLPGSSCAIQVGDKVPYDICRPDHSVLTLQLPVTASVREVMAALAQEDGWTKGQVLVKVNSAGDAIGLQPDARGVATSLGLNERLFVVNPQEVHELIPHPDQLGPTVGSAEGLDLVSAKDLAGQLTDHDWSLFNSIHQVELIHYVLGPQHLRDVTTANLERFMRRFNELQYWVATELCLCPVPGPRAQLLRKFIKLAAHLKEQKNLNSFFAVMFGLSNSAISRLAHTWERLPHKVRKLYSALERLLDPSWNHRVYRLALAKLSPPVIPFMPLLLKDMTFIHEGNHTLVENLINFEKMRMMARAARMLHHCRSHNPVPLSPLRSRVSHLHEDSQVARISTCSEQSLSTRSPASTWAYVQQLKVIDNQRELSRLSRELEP

| SMILES | activity change, negative = inhibition | Potency |
| --- | --- | --- |
| CC(C)c1ccc(Nc2nc(CC(=O)O)cs2)cc1 | inactive: -13.7% | – |
| COCCCN(C(=S)NC(=O)c1ccc(C(C)(C)C)cc1)c1c(N)n(Cc2ccccc2)c(=O)[nH]c1=O | – | inconclusive [inhibitor, partial curve, poor fit] |
| O=C(O)C1C2C=CC(C2)C1C(=O)Nc1ccc(Cl)c(Cl)c1 (configuration not stated) | inactive: 2.72% | – |
| CCc1ccc(S(=O)(=O)Nc2c(C)nc3nc[nH]n3c2=O)cc1 | – | inconclusive [inhibitor, full curve, poor fit] |
| Cc1ccc(N2C(=O)c3ccccc3C2C(=O)c2ccc(C)c(C)c2O)cc1 (configuration not stated) | – | inconclusive [inhibitor, single point] |
| O=C(Nc1ccc(F)c(F)c1)c1cc(S(=O)(=O)N2CCN(c3ccccn3)CC2)ccc1F | inactive: 0.79% | – |
| CCOC(=O)c1oc2ccccc2c1CN1CCN(C(=O)c2ccccc2)CC1 | – | inconclusive [inhibitor, single point] |
| COC(=O)c1cc2c(n1S(=O)(=O)c1ccc(C)cc1)C(=O)C(=O)c1[nH]cc(C(=O)OCc3ccccc3)c1-2 | inactive: -6.53% | – |
| Cc1cc(CNC(=O)[C@H](C)[C@@H]2C[C@@]2(C)[C@@H](NC(=O)OCc2ccccc2)c2ccccc2)nn1C | – | inconclusive [inhibitor, single point] |
| Cc1cccc(NC(=O)Cn2c(O)c(N=NC(=O)c3ccccc3O)c3ccccc32)c1 | – | active: 56.2 µM |
| Cc1cccc(N2CCN(CCCNC(=O)c3ccc(NC(=O)C4=CSCCO4)cc3)CC2C)c1 (configuration not stated) | – | inconclusive [inhibitor, full curve] |
| O=C(c1ccccc1)c1ccc(OCCO)cc1 | – | inconclusive [inhibitor, full curve, poor fit] |
| O=C(CN1C(=O)CCC1=O)Nc1nc(-c2ccccn2)cs1 | inactive: 12.3% | – |
| O=C(O)CC1(c2ccc(F)cc2)C2CC3CC(C2)CC1C3 (configuration not stated) | – | inconclusive [inhibitor, full curve] |
| Oc1ccc(/C=N/Nc2ccnc3cc(Cl)ccc23)c(O)c1O | – | inconclusive [inhibitor, partial curve] |
| N#Cc1cccc2c1-c1ccccc1/C2=N/NC(N)=S | – | inconclusive [inhibitor, partial curve] |
| CCCNC(=O)C1CCN(S(=O)(=O)c2ccc3[nH]c(=O)ccc3c2)CC1 | – | inconclusive [inhibitor, single point] |
| O=C(CC1CCCC1)N1CCCC(Nc2cccc(F)c2)C1 (configuration not stated) | inactive: -9.4% | – |
| Cc1nc2c(ccc3nc(NC(=O)C4CC4)sc32)s1 | – | inconclusive [inhibitor, single point] |
| COC(=O)c1cc(NC(=O)c2ccccc2)c(=O)oc1C/C=N\OCc1ccc(Cl)cc1Cl | – | inconclusive [inhibitor, single point] |
| CCn1c(SCC(=O)O)nnc1-c1cc2c(C)nn(-c3ccccc3)c2s1 | – | inconclusive [inhibitor, single point] |
| COc1ccccc1-n1cnnc1SCC(=O)Nc1ccccc1 | inactive: 14.1% | – |
| Cc1cc(NC(=O)c2cccc(S(=O)(=O)N3CC(c4ccccc4)CC3=O)c2)no1 (configuration not stated) | – | inconclusive [inhibitor, single point] |

| SMILES | activity change, negative = inhibition | Potency |
| --- | --- | --- |
| CC(C)(C)OC(=O)N1CCC(NC(=O)c2[nH]cnc2C(=O)Nc2ccc(Cl)cc2)CC1 | – | inconclusive [inhibitor, single point] |
| Cc1ccc(S(=O)(=O)Oc2ccccc2)cc1 | inactive: 0.514% | – |
| COCCn1c(SCC(=O)Nc2ccccc2C)nc2c(oc3ccccc32)c1=O | – | inconclusive [inhibitor, partial curve] |
| CCC(C(=O)NC(C)(C)C)n1c(-c2ccccc2)nc2ccccc21 (configuration not stated) | inactive: -11.7% | – |
| Oc1ccc(/C(Cc2ccc3ccccc3n2)=N\Nc2ccccc2)c(O)c1 | inactive: -26.7% | – |
| O=[N+]([O-])c1cc(Cl)cc(/C=N/NC(=S)Nc2ccc(S(=O)(=O)N3CCOCC3)cc2)c1O | – | inconclusive [inhibitor, partial curve] |
| C/C(=N\NC(=O)c1ccccc1O)c1ccc(NC(=O)c2ccccc2)cc1 | – | inconclusive [inhibitor, single point] |
| CCOC(=O)c1ccccc1NC(=O)COC(=O)CSCC(=O)Nc1cc(C)on1 | inconclusive: -34% [inhibitor] | – |
| C=CCOC(=O)c1cc(-c2ccc(/C=C3\C(=O)NC(=O)C(C#N)=C3C)o2)ccc1Cl | – | inconclusive [inhibitor, single point] |
| O=C(OCc1ccccc1)N1CCC2CC1c1c2cccc1N1CCOCC1 (configuration not stated) | – | inconclusive [inhibitor, partial curve, poor fit] |
| CSc1ccccc1C(=O)NCCOc1cccc(C)c1 | – | inconclusive [inhibitor, full curve, poor fit] |
| CCc1nnc(NS(=O)(=O)c2ccc(NCc3cc(Cl)ccc3O)cc2)s1 | – | inconclusive [inhibitor, partial curve] |
| CC1C/C(=N\NC(N)=S)c2cc(Cl)ccc2S1 (configuration not stated) | inactive: -5.53% | – |
| Nc1nc(-c2cccc(F)c2)cs1 | inactive: 6.5% | – |
| COc1ccc(NC(=O)c2ccc3c(=O)n4c(nc3c2)CCCCC4)cc1 | – | inconclusive [inhibitor, single point] |
| O=C(N/N=C/c1c[nH]c2ccccc12)c1sc2ccccc2c1Cl | – | inconclusive [inhibitor, partial curve] |
| CCCCN(CCO)c1ncnc2sc(-c3ccccc3)cc12 | – | inconclusive [inhibitor, partial curve, poor fit] |
| CC(C(=O)Nc1cccc([N+](=O)[O-])c1)N1CCN(C/C=C/c2ccccc2)CC1 (configuration not stated) | – | inconclusive [inhibitor, partial curve, poor fit] |
| N#Cc1cccc(NC(=O)c2cc(C3CCCCN3C(=O)c3cccs3)on2)c1 (configuration not stated) | inactive: -12.9% | – |
| CCOc1ccc(CCNC(=O)COC(=O)c2cccc(OC)c2O)cc1OCC | – | inconclusive [inhibitor, single point] |
| Cc1oc2c(C)c(O)ccc2c(=O)c1-c1nncn1-c1ccccc1 | inactive: 11.5% | – |
| Cc1ccc(NC(=O)C2CCN(S(=O)(=O)c3ccc4c(c3)CC(C)N4C(=O)C3CCC3)CC2)nc1 (configuration not stated) | – | inconclusive [inhibitor, full curve, poor fit] |
| CCNc1nc(Oc2ccc(C#N)cc2)cc(C(F)(F)F)n1 | – | inconclusive [inhibitor, partial curve] |

| SMILES | activity change, negative = inhibition | Potency |
| --- | --- | --- |
| Nc1nc(SCC(=O)c2cccc([N+](=O)[O-])c2)n[nH]1 | – | inconclusive [inhibitor, full curve, poor fit] |
| O=C(c1cccc(N2C(=O)C3C4C=CC(C4)C3C2=O)c1)N1CCN(c2ccc(F)cc2)CC1 (configuration not stated) | – | inconclusive [inhibitor, partial curve] |
| Cc1nc(-[n+]2nc(-c3ccncc3)nn2-c2ccccc2)sc1C | – | inconclusive [inhibitor, full curve] |
| COc1cccc(NC(=S)NNC(=O)Cn2nc([N+](=O)[O-])cc2C)c1 | – | inconclusive [inhibitor, full curve, poor fit] |
| Cc1ccc(-c2csc3nc(C)n(-n4c(C)ccc4C)c(=O)c23)o1 | inactive: 0.533% | – |
| Cn1nnnc1SCC(=O)NCc1cc([N+](=O)[O-])ccc1O | inconclusive: -15.9% [inhibitor] | – |
| CCOc1ccc(OCCOC(=O)CN(C)S(=O)(=O)c2ccc(NC(C)=O)cc2)cc1 | inactive: 7.18% | – |
| O=C([C@H]1O[C@@H](n2ccc(=O)[nH]c2=O)[C@H](O)[C@@H]1O)N1CCC(F)(F)CC1 | inactive: 15.2% | – |
| CCCc1cc(=O)oc2c(C)c(OCC(=O)NCc3ccccn3)ccc12 | – | inconclusive [inhibitor, single point] |
| COc1ccccc1-c1cccc([C@@H]2C[C@H]3[C@H](CON3C)CN2S(=O)(=O)c2ccccc2C)c1 | inactive: 4.22% | – |
| Cc1cccc(C(=O)Oc2ccc(/C=N/NC(=O)c3cc(O)cc(O)c3)cc2)c1 | – | inconclusive [inhibitor, partial curve] |
| Cc1cccc(C)c1C(O)c1ncc(-c2ccccc2C(F)(F)F)[nH]1 (configuration not stated) | inactive: -11.9% | – |
| CC(C)(CC(=O)O)CC(=O)Nc1ccc(Oc2ccc(C(C)(C)C)cc2)nc1 | – | inconclusive [inhibitor, single point] |
| CC(=O)c1ccc(NC(=O)c2cc(Cl)sc2Cl)cc1 | inactive: 8.7% | – |
| O=C(CCc1ccccc1)Nc1cccc(NC(=O)CCc2ccccc2)c1 | inactive: -0.0288% | – |
| Cc1ccc(OCc2cc(C(=O)N3CCN(c4ccccc4)CC3)no2)cc1C | – | inconclusive [inhibitor, single point] |
| COC(=O)N/N=C(C)\C=C\c1ccco1 | – | inconclusive [inhibitor, single point] |
| O=S1(=O)CCO[C@H]2Cc3ccccc3[C@H]2N1Cc1cccc(C(F)(F)F)c1 | – | inconclusive [inhibitor, partial curve] |
| CCC(Sc1nncn1C)C(=O)Nc1nnc(-c2ccc(Cl)cc2)s1 (configuration not stated) | – | inconclusive [inhibitor, single point] |
| CC(=O)c1c(C)[nH]c(C(=O)N(C)C(c2ccccc2)c2ccccc2)c1C | – | inconclusive [inhibitor, single point] |
| Cc1ccc(N(C)C(=O)N2CCN(S(=O)(=O)c3ccc4ccccc4c3)CC2)cc1 | – | inconclusive [inhibitor, single point] |
